From paper PMC4336329 (PLoS ONE, 2015) come the findings set out here.

Among all 310,000 compounds or so, about 2,200 (0.71%) showed an effect of 50% or more. The effect is printed as a negative number. The list shows a part of the results.

human ether-à-go-go-related gene (hERG) potassium channel, sequence (Q12809 whole entry, looked up): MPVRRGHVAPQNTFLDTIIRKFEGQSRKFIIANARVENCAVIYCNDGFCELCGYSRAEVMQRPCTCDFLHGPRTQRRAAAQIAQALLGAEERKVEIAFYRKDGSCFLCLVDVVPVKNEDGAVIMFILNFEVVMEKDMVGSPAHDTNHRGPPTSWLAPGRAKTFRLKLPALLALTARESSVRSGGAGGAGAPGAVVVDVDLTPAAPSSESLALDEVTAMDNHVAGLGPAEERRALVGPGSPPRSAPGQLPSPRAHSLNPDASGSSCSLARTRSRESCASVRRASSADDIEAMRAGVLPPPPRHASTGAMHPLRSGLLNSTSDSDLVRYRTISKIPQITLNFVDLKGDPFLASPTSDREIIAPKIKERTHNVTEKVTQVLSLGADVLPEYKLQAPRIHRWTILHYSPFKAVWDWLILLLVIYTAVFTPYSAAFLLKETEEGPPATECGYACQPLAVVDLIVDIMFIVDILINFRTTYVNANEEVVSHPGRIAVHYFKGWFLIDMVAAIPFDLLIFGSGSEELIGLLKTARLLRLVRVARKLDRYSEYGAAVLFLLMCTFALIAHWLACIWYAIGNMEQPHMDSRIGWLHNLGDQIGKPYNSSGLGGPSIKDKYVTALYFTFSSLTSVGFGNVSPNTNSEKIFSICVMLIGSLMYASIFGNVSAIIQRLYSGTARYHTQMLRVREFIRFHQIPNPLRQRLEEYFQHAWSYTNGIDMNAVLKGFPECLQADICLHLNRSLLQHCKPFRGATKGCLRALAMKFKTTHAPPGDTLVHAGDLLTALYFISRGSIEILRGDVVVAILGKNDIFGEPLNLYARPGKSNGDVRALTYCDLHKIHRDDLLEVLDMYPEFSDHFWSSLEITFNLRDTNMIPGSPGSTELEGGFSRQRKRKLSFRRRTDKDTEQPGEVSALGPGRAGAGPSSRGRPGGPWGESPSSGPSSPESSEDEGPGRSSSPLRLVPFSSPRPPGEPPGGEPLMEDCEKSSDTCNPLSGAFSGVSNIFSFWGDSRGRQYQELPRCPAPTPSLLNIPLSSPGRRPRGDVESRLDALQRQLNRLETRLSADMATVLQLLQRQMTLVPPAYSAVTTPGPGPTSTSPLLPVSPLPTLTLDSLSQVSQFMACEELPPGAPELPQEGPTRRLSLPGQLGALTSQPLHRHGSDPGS

The test addresses human ether-à-go-go-related gene (hERG) potassium channel (human, UniProt Q12809). In words: primary screen, population patch clamp on CHO cells stably expressing hERG.
In the case of `CN1CCN(c2ccc(C(=O)c3cn(-c4ccc(F)c(Cl)c4)nn3)cc2)CC1`, the “hERG current change (%, negative = inhibition) at 1uM” value is on record as 13.3%.

For `Cc1cc(/C=C(\C#N)C(=O)OCC(=O)NC(=O)NC(C)(C)C)c(C)n1CCC(C)C`, the “hERG current change (%, negative = inhibition) at 1uM” value came to 9.54%.

Take `CCCCCCc1nnc(NC(=O)c2ccco2)s1`: the “hERG current change (%, negative = inhibition) at 1uM” value is 12.2%. For the compound `Cc1cccc(C)c1OCC(=O)Nc1c(C)nn(C)c1C`, the “hERG current change (%, negative = inhibition) at 1uM” value was found to be 20.2%. Turning to `CC(C)CCn1nnnc1C(C(C)C)N1CCC(C(N)=O)CC1` (stereo not drawn), the “hERG current change (%, negative = inhibition) at 1uM” value stood at 3.94%. As to `COC(=O)c1[nH]c(C)c(/C(O)=C2\C(=O)C(=O)N(CCCN3CCOCC3)C2c2ccccn2)c1C` (stereo not drawn), the “hERG current change (%, negative = inhibition) at 1uM” value is recorded as 7.78%. `COc1ccc(C)cc1-n1nnnc1SCC(=O)c1ccc2c(c1)OCCO2`: the “hERG current change (%, negative = inhibition) at 1uM” value was 11.3%. With `CN(C)C(=O)N1CCC(C(=O)NCc2ccc(F)cc2)CC1`, the “hERG current change (%, negative = inhibition) at 1uM” value stood at 15.6%.

For `COC(=O)c1ccc(C2/C(=C(/O)c3ccc4c(c3)CC(C)O4)C(=O)C(=O)N2CCN2CCOCC2)cc1` (stereo not drawn), the “hERG current change (%, negative = inhibition) at 1uM” value came out at 12%. On to `Nc1c(N(CCC2=CCCCC2)C(=O)COc2ccc(F)cc2)c(=O)[nH]c(=O)n1Cc1ccccc1`, for which the “hERG current change (%, negative = inhibition) at 1uM” value amounted to 6.25%. The value for `Nc1nnc(CC(=O)N/N=C/c2ccc(-c3ccccc3)o2)s1` was 7.35%; that for `Cc1ccc(-c2n[nH]c(=S)n2/N=C/c2ccc(C)s2)cc1` was 11.8%.

Take `COc1ccc(N(CC(=O)Nc2ccc(F)cc2)S(=O)(=O)c2ccccc2[N+](=O)[O-])c(OC)c1`: the “hERG current change (%, negative = inhibition) at 1uM” value is 4.04%. The value for `O=C(COc1ccc2c(-c3ccccc3)cc(=O)oc2c1)Nc1ccc(CN2CCOCC2)cc1` was 17.5%; that for `O=C(CSc1nnc(-c2ccccc2Br)o1)N1CCc2ccccc2C1` was -1.28%; that for `Cc1ccccc1NC(=O)Cn1c(C)nc2ccc(NC(=O)C3CC3)cc2c1=O` was 13%. For the compound `CCOc1cc(C(=O)N2CCC(CC3CC(c4ccccc4)=NO3)(C(=O)NCc3ccc(OC)cc3)CC2)cc(OCC)c1OCC` (stereo not drawn), the “hERG current change (%, negative = inhibition) at 1uM” value was determined as 7.91%. The same measure for `O=C(CN1CCCCCC1)N/N=C/c1cccc(Cl)c1Cl`: 1.88%; for `COC(=O)Cc1ccc(NC(=S)NCCCO)cc1`: -5.72%; for `CC1(C)CC(NC(=O)C(F)(F)F)CC(C)(C)N1OC(=O)c1ccco1`: -2.4%. The same measure for `COCCNC(=S)N1CCN(C(=O)C(=O)Nc2ccc(C(=O)OC)cc2)CC1`: 4.33%; for `CCOC(=O)N1CCN(Cc2nc3cc(NC(=O)c4ccco4)ccc3n2CC)CC1`: 5.74%; for `CCN(CC)c1ccc(NC(=O)c2ccc(NC(=O)C3CCCO3)cc2)c(C)c1` (stereo not drawn): 11.9%.

With `CCN1CCN(C(c2ccccn2)c2c(NC(=O)c3ccccc3)sc(C)c2C)CC1` (stereo not drawn), the “hERG current change (%, negative = inhibition) at 1uM” value is recorded as -14.2%. The value for `COc1ccccc1NC(=O)N1CCCC1C(=O)NCc1ccccc1` (stereo not drawn) was 11.3%. Consider `CCN(CC)CC.Cc1nnc(SCC(=O)NCc2ccc3c(c2)OCO3)[nH]c1=O.Cl`, for which the “hERG current change (%, negative = inhibition) at 1uM” value amounted to 8.17%. The same measure for `CCCCCn1c(CN2CCCCC2CC)nc2c1c(=O)n(C)c(=O)n2C` (stereo not drawn): -7.37%; for `Cc1cc(C)n(-c2nc(NCCO)c3c4c(sc3n2)CCCC4)n1`: 7.55%. On to `Cc1ccc(C(=O)C[n+]2ccc(-c3nnc4n3CCC4)cc2)cc1.[Br-]`, for which the “hERG current change (%, negative = inhibition) at 1uM” value was 14.7%. The same measure for `CC(C)(C)NC(=O)CN(Cc1ccc2c(c1)OCO2)C(=O)CCC(=O)Nc1nccs1`: 15.9%; for `Cc1cc(CCN2CCC(=O)NC2=O)ccc1OC(C)C`: 6.73%; for `O=C(COC(=O)/C=C/c1cccc([N+](=O)[O-])c1)Nc1ccc(Cl)cn1`: 15.8%. The same measure for `C[N+](C)(C)CCCCCC(=O)/C=N/O.[I-]`: 9.08%; for `COc1ccc(S(=O)(=O)N2CCCCCC2)cc1NC(=O)CN1C(=O)NC(C)(c2ccccc2)C1=O` (stereo not drawn): 2.06%. Take `COc1ccc(-c2cc(C(=O)OCC(=O)N(C)C)c3ccccc3n2)cc1`: the “hERG current change (%, negative = inhibition) at 1uM” value was 7.99%. The same measure for `Cc1nc2c(sc(=S)n2Cc2ccco2)c(=O)n1CC(=O)Nc1ccccc1F`: 5.04%. Regarding `CC(=O)N1c2ccccc2NC2=C(C(=O)CC(C)(C)C2)C1c1cccn1C` (stereo not drawn), the “hERG current change (%, negative = inhibition) at 1uM” value was found to be 7.14%. The same measure for `Cc1ccc(S(=O)(=O)Nc2cc3c(C(=O)O)c(C)oc3c3ccccc23)c(C)c1`: 18.8%; for `Cc1cccc(OCC(=O)OCC(=O)N2CCCc3ccccc32)c1C`: 11.4%. With `COc1ccc(N2CC(C(=O)N[C@@H](C)C(=O)N[C@H](CO)c3ccccc3)CC2=O)cc1` (stereo partly drawn), the “hERG current change (%, negative = inhibition) at 1uM” value was found to be 13.1%. The same measure for `CC(C)c1ccccc1N=C1SCCCN1C(=O)c1cccc(N2C(=O)CCC2=O)c1`: 10.5%; for `c1ccc(CC2CCN(c3nnnn3-c3ccccc3)CC2)cc1`: 6%. Take `Cc1sc(C(=O)Nc2ccc3ccccc3c2)cc1CC(=O)O`: the “hERG current change (%, negative = inhibition) at 1uM” value is 12.2%. As to `CCCCC(=O)Nc1ccc(NCc2ccc(C)s2)cc1`, the “hERG current change (%, negative = inhibition) at 1uM” value is given as 4.76%. The value for `CCC(=O)N1CCN(c2cc(C)ccc2C)CC1` was 7.91%; that for `Nc1ncccc1OCc1ccc(Cl)c(Cl)c1` was 6.37%. The value for `Cc1ccc(OCC(=O)N/N=C/c2ccncc2)cc1C` was 20%; that for `CCCCCCC1CC(CCC(=O)Nc2ccc([N+](=O)[O-])cc2)C(=O)O1` (stereo not drawn) was 11.4%.

For `CCCSc1nsc(NC(=O)CCC)n1`, the “hERG current change (%, negative = inhibition) at 1uM” value was 2.3%. Consider `COc1cc(N/C(N)=N/c2nc(C)cc(C)n2)c(OC)cc1Cl`, for which the “hERG current change (%, negative = inhibition) at 1uM” value was -17.2%. As for `O=C(Cc1ccc(NC2=NC3CS(=O)(=O)CC3S2)cc1)NCCc1ccccc1` (stereo not drawn), the “hERG current change (%, negative = inhibition) at 1uM” value turned out to be 7.09%. On to `COC(=O)[C@@H](NC(=O)c1ccccc1OC1CCN(S(C)(=O)=O)CC1)C(C)C`, for which the “hERG current change (%, negative = inhibition) at 1uM” value came to 10.5%. The same measure for `CCc1nnc(NC(=O)Cn2nc(-c3ccccc3OC)ccc2=O)s1`: 6.78%; for `COc1cc(NC(=O)COn2nnc3ccc(S(C)(=O)=O)cc32)cc(OC)c1`: 10.5%; for `Cc1ccc2c(=O)cc(C(=O)Nc3ccc(S(=O)(=O)Nc4onc(C)c4C)cc3)oc2c1`: 19.6%. For `CN(C)c1nccc(N(Cc2ccccc2)Cc2ccccc2)c1C#N`, the “hERG current change (%, negative = inhibition) at 1uM” value is recorded as -38.8%. Turning to `CC(=O)c1cc(C#N)c(N(C)Cc2ccccc2)nc1C`, the “hERG current change (%, negative = inhibition) at 1uM” value is reported as 4.62%. For the compound `CCCC(CCC)C(=O)NNc1cc(=O)c2c(=O)n(C)c(=O)n(C)c2[nH]1`, the “hERG current change (%, negative = inhibition) at 1uM” value was determined as 18.1%. The same measure for `COc1ccc(OCc2cn3c(C)cc(C)nc3n2)cc1`: 4.8%; for `CN(C)S(=O)(=O)c1cccc(-c2nnc(SCc3cc(Cl)cc4c3OCOC4)n2N)c1`: 12.6%; for `CCCCN(C)CCNC(=O)c1cc2c(-c3cccc(OC)c3)nn(C)c2s1`: 8.34%. The same measure for `C[C@@H]1NS(=O)(=O)[C@H]2C[C@@H]3C=C[C@]2(O3)[C@H]1OC(=O)c1ccc(C(C)(C)C)cc1`: 10.3%. The same measure for `CCN(CC)c1c([N+](=O)[O-])c(=O)n(C)c2ccccc12`: 1.95%; for `O=C(CCN1C(=O)c2ccccc2C1=O)NCc1ccc(F)cc1`: 9.91%; for `O=C1C=C(c2ccc3c(c2)OCO3)CCC1`: 12.3%. Turning to `Cn1c(=O)n(C)c2cc(S(=O)(=O)Nc3ccccc3)ccc21`, the “hERG current change (%, negative = inhibition) at 1uM” value is on record as 13%. Consider `COc1ccc(-c2nc(CS(=O)CC(=O)NCCCN3CCCC3)c(C)o2)cc1OC` (stereo not drawn), for which the “hERG current change (%, negative = inhibition) at 1uM” value was -2.17%. The same measure for `CCOc1cc(/C=N/n2cnnc2)ccc1OCC(=O)Nc1ccccc1OC`: 14.4%. `COC(=O)c1ccccc1NC(=O)NC1CC1`: the “hERG current change (%, negative = inhibition) at 1uM” value worked out at 13.7%. With `COc1cccc(C(=O)N2CCN=C2SC)c1`, the “hERG current change (%, negative = inhibition) at 1uM” value is 13.2%. For the compound `Cc1cc(C(=O)Nn2c(-c3ccncc3)nc3ccccc3c2=O)ccc1[N+](=O)[O-]`, the “hERG current change (%, negative = inhibition) at 1uM” value is listed as 13.5%. For `CCc1nc(SCC(N)=O)c2c(=O)n(C)c(=O)n(C)c2n1`, the “hERG current change (%, negative = inhibition) at 1uM” value was determined as 13.9%.

As to `CCC(C)NC(=O)CN(C1CCCCC1)S(C)(=O)=O` (stereo not drawn), the “hERG current change (%, negative = inhibition) at 1uM” value came to 7.49%. The same measure for `O=C(Nc1ccccn1)C1CCCN(c2ncnc3c2nc2n3CCCCC2)C1` (stereo not drawn): 4.27%; for `O=C1CC(N2CCOCC2)C(=O)N1CCN1C(=O)CC(N2CCOCC2)C1=O` (stereo not drawn): 14%; for `Cc1ccc(-n2nc3c(=O)n(CCCC(=O)NCc4ccccc4C)nc(C)c3c2C)cc1`: 14.4%.

As for `COc1ccc(CN(C)CC2CCCN(CCc3ccc(Cl)cc3)C2)cc1OC` (stereo not drawn), the “hERG current change (%, negative = inhibition) at 1uM” value is -78.2%. For `Cc1noc(C)c1CN(C(=S)NC1CC2CCC1C2)c1ccccc1` (stereo not drawn), the “hERG current change (%, negative = inhibition) at 1uM” value is 4.11%. The value for `CCN(CCCNC(=O)CCCOc1cc(=O)n(C)c2ccccc12)Cc1ccccc1` was 7.53%; that for `Cl.O=C(O)c1ccc(OCCn2ccnc2)cc1` was 14.8%. In the case of `N#Cc1ncc(Cl)c2ccccc12`, the “hERG current change (%, negative = inhibition) at 1uM” value stood at 9.45%. The value for `Cc1ccc(C)c(NC(=O)CSc2nnc(NC(=O)C3CC3)s2)c1` was 15.9%; that for `COc1ccc(OC)c(S(=O)(=O)NC2CCSc3ccccc32)c1` (stereo not drawn) was 15.4%. For `CC(=O)Nc1ccc(NC(=O)Nc2ccccc2C)cc1`, the “hERG current change (%, negative = inhibition) at 1uM” value came to 10.6%. As to `O=C(CSc1ccc2c(c1)OCCO2)Nc1ncc(Cl)cc1Cl`, the “hERG current change (%, negative = inhibition) at 1uM” value was -5.44%. For `COc1ccccc1CNS(=O)(=O)c1ccc2c(c1)N(C(C)=O)CCO2`, the “hERG current change (%, negative = inhibition) at 1uM” value is on record as 16.7%.

Consider `O=C(O)CC(NC(=S)NCc1ccccc1)C(=O)O` (stereo not drawn), for which the “hERG current change (%, negative = inhibition) at 1uM” value was -7.52%.
